Laboratory results published in paper PMC4336329 (PLoS ONE, 2015).
Hit rate of the full screen: of about 310,000 compounds, about 2,200 (0.71%) showed an effect of 50% or more. The effect is printed as a negative number. The list shows a part of the results.

What follows are molecules tested against human ether-à-go-go-related gene (hERG) potassium channel (human, UniProt Q12809) (assay: primary screen, population patch clamp on CHO cells stably expressing hERG).
Sequence of human ether-à-go-go-related gene (hERG) potassium channel (Q12809 whole entry, looked up): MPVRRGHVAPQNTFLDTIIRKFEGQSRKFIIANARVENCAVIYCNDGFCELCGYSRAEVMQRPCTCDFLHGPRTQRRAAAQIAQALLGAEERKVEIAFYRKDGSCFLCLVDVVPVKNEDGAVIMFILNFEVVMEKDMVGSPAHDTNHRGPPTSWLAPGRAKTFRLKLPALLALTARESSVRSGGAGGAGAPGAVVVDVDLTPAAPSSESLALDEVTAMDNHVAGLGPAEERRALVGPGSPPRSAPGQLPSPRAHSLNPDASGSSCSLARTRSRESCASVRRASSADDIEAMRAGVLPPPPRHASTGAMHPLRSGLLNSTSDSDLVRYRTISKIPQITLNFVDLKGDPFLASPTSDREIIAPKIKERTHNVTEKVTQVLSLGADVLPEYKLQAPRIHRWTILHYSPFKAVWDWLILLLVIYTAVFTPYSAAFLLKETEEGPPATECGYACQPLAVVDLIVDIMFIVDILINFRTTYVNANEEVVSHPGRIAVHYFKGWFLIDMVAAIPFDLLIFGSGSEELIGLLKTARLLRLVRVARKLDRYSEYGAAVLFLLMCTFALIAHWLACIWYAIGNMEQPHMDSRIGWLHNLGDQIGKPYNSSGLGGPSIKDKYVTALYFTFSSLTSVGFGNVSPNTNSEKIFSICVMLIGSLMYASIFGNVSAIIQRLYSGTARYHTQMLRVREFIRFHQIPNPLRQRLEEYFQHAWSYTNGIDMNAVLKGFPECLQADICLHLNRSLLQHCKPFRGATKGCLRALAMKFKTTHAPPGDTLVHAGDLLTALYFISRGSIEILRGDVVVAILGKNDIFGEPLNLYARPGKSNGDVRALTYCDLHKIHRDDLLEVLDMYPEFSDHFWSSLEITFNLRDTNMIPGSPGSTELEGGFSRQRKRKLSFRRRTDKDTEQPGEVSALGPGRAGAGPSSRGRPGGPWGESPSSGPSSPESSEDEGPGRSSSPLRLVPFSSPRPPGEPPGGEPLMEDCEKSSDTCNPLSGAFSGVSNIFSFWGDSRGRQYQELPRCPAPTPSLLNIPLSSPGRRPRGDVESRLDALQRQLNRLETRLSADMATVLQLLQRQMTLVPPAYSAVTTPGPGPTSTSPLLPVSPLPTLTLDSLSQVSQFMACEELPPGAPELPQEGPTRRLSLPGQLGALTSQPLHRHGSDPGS

SMILES | hERG current change (%, negative = inhibition) at 1uM [%]
Oc1ccc(Nc2nc3ccccc3nc2Nc2ccc(O)cc2)cc1 | 17.3
O=C(c1cccc(F)c1)N1CCC2(CC1)NCCc1[nH]cnc12 | 16
CCOc1ccccc1NC(=O)CCS(=O)(=O)c1ccc2c(c1)CC(C)N2C(C)=O (centres unmarked) | 13.9
COc1cc(C)nc(N2CCCC(C(=O)Nc3cccc(Cl)c3Cl)C2)n1 (centres unmarked) | 5.35
Cc1ccccc1NC(=O)c1c(C)nc(SCC(=O)OCc2ccccc2)c(C#N)c1-c1ccc(F)cc1 | 3.46
COC(=O)c1ccc(NC(=O)[C@H](C)NC(N)=O)cc1 | 8.56
COc1cn(-c2ccccc2)nc1C(=O)NCc1ccc(C)cc1 | 11.2
COc1ccccc1C(=O)NCCCNC(=O)c1ccccn1 | 22.9
Cc1ccc(-c2nc3ccccc3nc2NN)cc1 | 15.8
COc1ccccc1CN1C[C@@H]2C[C@@H](C3=Cc4cccc(OC)c4OC3)N3CCC[C@@]23C1=O | 14.2
CC(=O)Nc1sc2c(c1C#N)CC(C)(C)NC2(C)C | 17.2
C/C(=N/NC(=O)CNC(=O)Cc1ccccc1)c1ccc(Cl)cc1 | 11
Cc1occc1C(=O)NC(C)CCc1ccccc1 (centres unmarked) | 7.56
CCN(CC(=O)Nc1c(F)cccc1F)C(=O)CC1CCCCC1 | 10.7
Cc1ccc(NC(=O)CCc2nnc3ccc(NCc4ccco4)nn23)nc1 | 12
COc1ccccc1CNC(=O)C1CCN(S(=O)(=O)c2ccc3nc4c(c(C(=O)O)c3c2)CCCC4)CC1 | 16.5
O=C(NCCCc1ccccc1)c1cccc(Br)c1 | -3.58
CC(=O)c1cccc(N(C(=O)CNC(=O)c2ccco2)C(C(=O)NCc2ccco2)c2ccccc2)c1 (centres unmarked) | 7.26
Cc1cc(C(C)(C)C)cc(S(=O)(=O)Nc2ccc(O)c(C(=O)O)c2)c1C | -3.91
COc1ccc(NC(=O)CCC(=O)Nc2nnc(C(C)C)s2)cc1Cl | 15.3
CCN(CC)Cc1c(O)ccc2occ(C(=O)c3ccc(OC)cc3)c12 | -64.2
COc1cccc(NC(=O)COc2cc(C)cc3oc(=O)cc(C)c23)c1 | 13.5

SMILES | hERG current change (%, negative = inhibition) at 1uM [%]
CN(C(=O)c1ccccc1[N+](=O)[O-])c1ccccc1C(=O)NCc1ccccc1 | 12.1
CCN(CC)CCCNC(=O)c1cc(Nc2ccc(OC)cc2OC)nc2ccccc12 | 0.441
O=C(Nc1cccc(NC(=O)c2ccco2)c1)c1ccc([N+](=O)[O-])cc1 | 30.8
Cc1ccc([N+](=O)[O-])cc1NC(=O)C(Sc1ccccc1)c1ccccc1 (centres unmarked) | 14.3
O=C1C2C3c4ccccc4C(c4ccccc43)[C@@H]2c2nc3ccccc3n21 (some centres unmarked) | 12
Cc1nc(SC2CC(=O)N(c3ccccc3)C2=O)nc2c1CCCC2 (centres unmarked) | -6.95
Cn1nccc1C(=O)N/N=C/c1cccnc1 | -1.45
O=c1oc2ccc(Cl)cc2cc1-c1nnc(Nc2cccc(C(F)(F)F)c2)s1 | 13
Clc1ccc(CN2CCC(Cc3ccccc3)CC2)cc1 | 12.3
COc1ccc(OC)c2c1CC(C)(C)NC2=O | 12.5
CN(C)S(=O)(=O)c1cccc(NC(=S)N/N=C/c2cc(Br)ccc2O)c1 | 12.3
C/C(CC(=O)NC(C)c1ccccc1)=N\NC(N)=S (centres unmarked) | 3.85
C/C(=N\N1CCN(Cc2ccccc2Cl)CC1)c1ccc(F)cc1 | 10.9
O=C(Nc1cc(S(=O)(=O)N2CCOCC2)ccc1N1CCOCC1)c1cccc(S(=O)(=O)N2CCCCC2)c1 | 8.85
COCCNC(=O)/C(C#N)=C/c1c(N2CCCCCC2)nc2c(C)cccn2c1=O | 12.6
Cc1ccc(-c2nnc(Oc3cccc(C)c3)c3ccccc23)cc1 | 8.86
COc1ccc(C(C(=O)NC2CCCCC2)N(C(=O)CCl)c2ccccc2Cl)cc1 (centres unmarked) | 5.14
CCOc1ccc(C(=O)Nc2ccc(Cl)cn2)cc1Cl | 6.8
CCCCN1C[C@H](O)[C@@H](O)[C@H](O)[C@H]1CO.Cl | 15.7
Cc1ccc(S(=O)(=O)Nc2ccc(C(=O)N3CCCC3)cc2)cc1 | 2.67
CCc1nc(SCC(=O)NCc2ccco2)c2c(=O)n(C)c(=O)n(C)c2n1 | 8.22
Cc1cc(C)c(C2=CC(=O)C[C@H](c3ccc4c(c3)OCO4)C2)c(C)c1 | 13.8
